Assay results from paper PMC7819943, “Rice protein-binding microarrays: a tool to detect cis-acting elements near promoter regions in rice”.
The other results are listed elsewhere or left out.

Target: T1, OsWOX13 (Oryza sativa, UniProt Q5QMM3 1-267)
T1 sequence: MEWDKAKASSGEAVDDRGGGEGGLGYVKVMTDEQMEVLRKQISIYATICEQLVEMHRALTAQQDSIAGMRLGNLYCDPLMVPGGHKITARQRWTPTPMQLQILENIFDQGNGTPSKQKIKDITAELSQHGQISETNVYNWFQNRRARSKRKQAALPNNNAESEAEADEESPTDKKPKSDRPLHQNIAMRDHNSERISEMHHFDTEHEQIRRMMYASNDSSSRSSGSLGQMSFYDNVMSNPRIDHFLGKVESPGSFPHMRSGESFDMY
Experiment: protein-binding microarray (RPBM); PBS, 2% BSA, 51.3 ng/ul salmon testes DNA, 50 uM zinc acetate, 200 nM TF, 25 C, 1 h; high values mean tight binding
Details: protein: recombinant; tags: N-terminal polyhistidine and DsRed monomer fusion (pET32a); label: CyDye5-dUTP incorporated in the synthesized complementary strand; 3' TTTTT single-stranded linker to array surface; dsDNA, one strand shown
Outline: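 In PBS with 2% BSA, salmon testes DNA and 50 µM zinc acetate, 200 nM protein was incubated on a custom Agilent array at 25 °C for 1 h and then washed off. The array had been made double-stranded by primer extension with Cy5-dUTP and blocked with 2% BSA. The proteins were transcription factors fused N-terminally to polyhistidine and DsRed, expressed in E. coli BL21-CodonPlus and purified on Ni–NTA. The binding signal is per-feature fluorescence intensity (arbitrary units) from an Axon 4000B scanner.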

Sequence	binding signal
CTGGTGATTGATAAAACTCCTGAAACTATGAAACAGAACTCGGAGTCACCTAGTGCAG	42800 fluorescence intensity (a.u.)
TTGGGAAGGATTGACCATGCAATCAATGTCTACCACAGTACGGAGTCACCTAGTGCAG	3570 fluorescence intensity (a.u.)
GTTGATTTAATTATGGTTAACCTCTCACAGTAATCCGGGTCGGAGTCACCTAGTGCAG	64800 fluorescence intensity (a.u.)
TAAATAACTGAACGGATTGGAGGCAGGAGACAAATTTGACCGGAGTCACCTAGTGCAG	6490 fluorescence intensity (a.u.)
TAAGATTTGATATGCATTAATTATTGTCCAGTGATAAGCCCGGAGTCACCTAGTGCAG	35600 fluorescence intensity (a.u.)
GTACAGTTACAATGTAATTGTGTCTCAATTATATACTACTCGGAGTCACCTAGTGCAG	5310 fluorescence intensity (a.u.)
ATTGAAGATGGTAATTGATGGCTTTGCTGCATTCTTTCGCCGGAGTCACCTAGTGCAG	19900 fluorescence intensity (a.u.)
TAGTCCTGATTGTTAGAAAGTTGCACCCATCGAGTAATCACGGAGTCACCTAGTGCAG	15500 fluorescence intensity (a.u.)
GTTTGATTACTTAGTCCTTCTCGTTTCCTGGCAACTATGACGGAGTCACCTAGTGCAG	31700 fluorescence intensity (a.u.)
CTCAACCATGATTTGCCGCTTCCTCCCGACCAATTAACACCGGAGTCACCTAGTGCAG	11600 fluorescence intensity (a.u.)
TTGTATTTATAATGGAACGGATGGGGTATTTAGGATGGGCCGGAGTCACCTAGTGCAG	35800 fluorescence intensity (a.u.)
TTCCAGCCAATCATCTCACTCCTGAACTTGTTCAGAGGGACGGAGTCACCTAGTGCAG	12900 fluorescence intensity (a.u.)
TGACAAATTGGACCACACAGACGCGATATCCACATCTGTCCGGAGTCACCTAGTGCAG	22000 fluorescence intensity (a.u.)
TTTAATGCGTGATTATCCATTCTTCCACACATGATTGGCTCGGAGTCACCTAGTGCAG	42900 fluorescence intensity (a.u.)
CCACGTGTCATTGACATATGAGTGGCAAATAGATAAATTGCGGAGTCACCTAGTGCAG	6200 fluorescence intensity (a.u.)
CTCTAATAAAGAAACTAATTACATAATCCGTCAATAAACCCGGAGTCACCTAGTGCAG	6980 fluorescence intensity (a.u.)
AGCAATTTTCGGTGATTAATCGCTAATCGACTAAGGCGATCGGAGTCACCTAGTGCAG	12800 fluorescence intensity (a.u.)
ATAATTTTGAAATTATTAACATGATATAAATGAGATAGAGCGGAGTCACCTAGTGCAG	16200 fluorescence intensity (a.u.)
CATTCAATTAATTGGTATGGCAGGATGAACAGAGTGAGGTCGGAGTCACCTAGTGCAG	45100 fluorescence intensity (a.u.)
ATACGCAATTATTGGTTCAAAGGAAGAAAAGAGAGGATGCCGGAGTCACCTAGTGCAG	3320 fluorescence intensity (a.u.)
TTCTTTTCTGATTGATTGAACGGAACAGAGATGTATACCACGGAGTCACCTAGTGCAG	50900 fluorescence intensity (a.u.)

Sequence	binding signal
TAAGGGCAATTAATTAAGTTATTTGGCTACACAGTTACCCCGGAGTCACCTAGTGCAG	10300 fluorescence intensity (a.u.)
ATGACCTTTTAATTAAACATTAATAATGTTATTAGGTCCTCGGAGTCACCTAGTGCAG	9580 fluorescence intensity (a.u.)
TTTTAATTATTATTAAGTGAAAACAGCATGCGGTCAGTGGCGGAGTCACCTAGTGCAG	27900 fluorescence intensity (a.u.)
CTAATTAAACCGTCATTAGCATATGTGGGTTACTGTAGCACGGAGTCACCTAGTGCAG	19600 fluorescence intensity (a.u.)
ACAAATTGAAAATTTTCGAACCTCGGAATCTTCTTTGAATCGGAGTCACCTAGTGCAG	34300 fluorescence intensity (a.u.)
AGTGAATAATCACTGCTACTGATGGGTATACTAGAGGGGACGGAGTCACCTAGTGCAG	6980 fluorescence intensity (a.u.)
TCATTAATGATCTAATCACCAACTAAACTCCCTATCAATTCGGAGTCACCTAGTGCAG	18200 fluorescence intensity (a.u.)
TGCTTAATTGAGGAGTAGTTTTGTCCGGCTAATTTGCTAGCGGAGTCACCTAGTGCAG	48700 fluorescence intensity (a.u.)
AGGAGGCGACGGCGGAGGAGGTGGTGGTGGTGGTGGTGGTCGGAGTCACCTAGTGCAG	3820 fluorescence intensity (a.u.)
TCATATCTGTAAATTATCAGTAGTTACTGTTAATTTGAGGCGGAGTCACCTAGTGCAG	5560 fluorescence intensity (a.u.)
AGTAGTTCTGATTGGTTGAAAATGTTTAGATTTTCATGTGCGGAGTCACCTAGTGCAG	34300 fluorescence intensity (a.u.)
GGGGTGCTAATGAGACTAATTTTGTGTGGGGACCATTAAACGGAGTCACCTAGTGCAG	6800 fluorescence intensity (a.u.)
AGCACGATTACTAATCTTGACTGTTGAATTTGGTACAGATCGGAGTCACCTAGTGCAG	10500 fluorescence intensity (a.u.)
GCCTCGAATTAATTCCTCGCCTTCCCCTATAAATACCGCGCGGAGTCACCTAGTGCAG	4940 fluorescence intensity (a.u.)
ATAGTGATTTTAAAATATATATTTAATAAAATAGGAACAACGGAGTCACCTAGTGCAG	3170 fluorescence intensity (a.u.)
CGGCGTTAATTGTCCTTCGATCCATTATTACAGAAACACTCGGAGTCACCTAGTGCAG	15400 fluorescence intensity (a.u.)
ACAAATGATCATTTGCATTATCACCTTCTGAGTCTACTCACGGAGTCACCTAGTGCAG	5020 fluorescence intensity (a.u.)
AACATTGATTTTAACTGCGGCCCATTTGGACGCCCAATAACGGAGTCACCTAGTGCAG	4820 fluorescence intensity (a.u.)
TTTATTGGAATATAATTAATTCAACATGGGACAATAGTTTCGGAGTCACCTAGTGCAG	7890 fluorescence intensity (a.u.)
GGCCATGCATTCAATCAACGACAAAACTATATAAAGCAACCGGAGTCACCTAGTGCAG	14300 fluorescence intensity (a.u.)
GTCATAGATTGTTATATTTTAGAACGGAGGTAATACTAATCGGAGTCACCTAGTGCAG	4560 fluorescence intensity (a.u.)
